A compilation of properties of binary mixtures (doi:10.1021/je960186a)
Some of these densities may be calculated back from excess volumes.

Test: xn = mol fraction of the nth substance listed
Conditions: 298.15 K, 100 kPa

CC1COC(=O)O1 (centres undefined) + CC(C)O
Conditions | mass density [kg/m3]
x1 = 0.0424 | 800.6
x1 = 0.0666 | 811.8
x1 = 0.1555 | 852.2
x1 = 0.2087 | 876.1
x1 = 0.2656 | 901.3
x1 = 0.3474 | 936.9
x1 = 0.3956 | 957.6
x1 = 0.4301 | 972.2
x1 = 0.4758 | 991.5
x1 = 0.5679 | 1029.6
x1 = 0.608 | 1046
x1 = 0.7571 | 1105.6
x1 = 0.8605 | 1146
x1 = 0.9114 | 1165.7

CC1COC(=O)O1 (centres undefined) + CO
Conditions | mass density [kg/m3]
x1 = 0.0148 | 799.9
x1 = 0.051 | 830.8
x1 = 0.0754 | 850.3
x1 = 0.113 | 878
x1 = 0.1717 | 917.2
x1 = 0.2136 | 942.5
x1 = 0.2529 | 964.4
x1 = 0.2874 | 982.2
x1 = 0.3593 | 1016.1
x1 = 0.3985 | 1032.9
x1 = 0.5135 | 1076.4
x1 = 0.6317 | 1113.8
x1 = 0.7523 | 1146.2
x1 = 0.8694 | 1173.2
x1 = 0.9587 | 1191.6
